# According to the supplement of paper PMC3334620:
# In all, about 33,000 sequences were measured (“E-score (-0.5 to 0.5)”: median about -0.013, highest 2% from about 0.3 on). The list shows a part of the results.
# Target: T1, Msn1 (UniProt P22148)
# T1 sequence: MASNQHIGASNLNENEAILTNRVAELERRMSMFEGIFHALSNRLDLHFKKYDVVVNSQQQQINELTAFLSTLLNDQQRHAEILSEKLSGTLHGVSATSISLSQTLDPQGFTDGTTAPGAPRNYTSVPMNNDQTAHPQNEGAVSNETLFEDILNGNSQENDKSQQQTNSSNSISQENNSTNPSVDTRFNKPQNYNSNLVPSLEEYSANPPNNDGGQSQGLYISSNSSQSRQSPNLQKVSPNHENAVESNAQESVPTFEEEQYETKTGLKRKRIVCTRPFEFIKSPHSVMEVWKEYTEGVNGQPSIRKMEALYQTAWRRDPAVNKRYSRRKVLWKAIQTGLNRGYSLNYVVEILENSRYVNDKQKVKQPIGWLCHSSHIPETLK
# Assay: PBM E-score (8-mer binding enrichment) (E-score (-0.5 to 0.5)); higher = stronger / more preferred TF binding; most listed sequences are background and not binding sites
# Settings: protein concentration: 200 nM; construct: GST-full length
# Outline: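 Each ungapped eight-base word and its reverse complement, pooled, received an E-score from the Universal PBM Analysis Suite. Underlying scans, normalised with masliner, recorded fluorescent anti-GST bound to GST-tagged yeast transcription factors. These were applied at about 100-200 nM to universal all-10-mer Agilent arrays double-stranded by primer extension.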
row,Sequence,PBM E-score
1,ATTCGAGG,0.0494
2,CTCAACAA,0.113
3,GAATCGTC,-0.0709
4,CGGTTGGC,0.00858
5,CTTGGTAA,0.00661
6,GGCAGAAC,-0.167
7,ATATTACA,0.157
8,AGTCTAGC,-0.184
9,GACATCCC,0.374
10,AATATAAA,0.241
11,GCGCTTGA,0.00998
12,ACTGAAGG,-0.0529
13,AAACCTGA,-0.178
14,CAGTGCAG,-0.109
15,CGTAGCCA,-0.162
16,ACGCACGC,0.247
17,CTAGGTGA,-0.05
18,AGCCACGG,-0.217
19,AACCATGG,0.0443
20,ATGGTAAT,0.04
21,AGATCGTA,-0.0221
22,ATGTACAT,0.324

row,Sequence,PBM E-score
1,TTGGACAA,0.47
2,CGTACCAG,-0.0966
3,AGCCGTCA,-0.0555
4,AGAGAGAT,-0.0186
5,CCGCTTCA,-0.0885
6,ATGGGTTA,0.0384
7,GGCCCGAA,0.077
8,GGTCCAAA,-0.0431
9,ATTTTAGA,0.125
10,AGACCCAC,0.0147
11,CAGACTTC,0.0133
12,AGCACGCC,-0.104
13,AGGAGGTA,-0.102
14,GCAGACAA,0.341
15,CCGACTGC,-0.00611
16,ATCTGCAA,-0.201
17,ACTCAGCT,0.0191
18,AGGAACGA,-0.203
19,ACTCTCGC,-0.0812
20,ACCGCGCT,-0.0147
21,ACTGCGGA,0.00583
22,CGCGAAGA,-0.0312

row,Sequence,PBM E-score
1,CCACGAGC,0.00807
2,ACTTTTAA,0.212
3,AGTTTCCC,-0.107
4,GATCGGGC,-0.0953
5,AGATATGG,0.102
6,CCTGTAAA,-0.157
7,CCCTGAAA,-0.0556
8,AAAGCCAA,-0.0502
9,ACGCGCGC,0.196
10,AAACCCCA,-0.0373
11,CTATCAGA,-0.128
12,CTGTGGTC,0.0127
13,AGCATTAA,0.08
14,ACGACCAG,-0.0844
15,TGTATTAA,0.192
16,ACCTCTAA,-0.00054
17,AGGCTGGG,-0.258
18,AATACATG,0.0057
19,CGATATTC,0.0347
20,CTGTGATA,-0.0746
21,ATCCGAAT,0.309
22,CGAAACTC,-0.201

row,Sequence,PBM E-score
1,ATAGACTG,0.0474
2,AGCAGGAA,0.0466
3,CCGGAACG,0.0578
4,AAGGATCT,-0.108
5,GGCGGTTA,-0.127
6,GCTCGTAC,-0.046
7,ACCGATTC,-0.0811
8,GCAAGAGA,-0.0797
9,AGTCAGGC,0.0431
10,GAATCATC,-0.11
11,CATCTGAA,0.00381
12,CGTCGTCA,-0.0897
13,TCGAACCA,0.0428
14,AAAGGAGA,-0.198
15,GCTTGACC,-0.0457
16,GGAAGCGA,-0.113
17,ACCGGCTA,0.0382
18,AAGGATAA,-0.0799
19,AGAAACGC,-0.16
20,ATGTCCGG,0.457
21,AAAGACTC,-0.134
22,GTGTTAAA,0.0297

row,Sequence,PBM E-score
1,ATATTAGA,0.247
2,CCATGCCG,0.0951
3,GGCAGGTA,-0.127
4,CCAAGGTA,-0.106
5,AGATATAC,0.055
6,AATGGAGG,-0.158
7,ATAGAGCC,-0.088
8,ACAGGAGG,-0.178
9,GCGACGGA,-0.0163
10,AAGGACAG,0.296
11,ATATCGTA,-0.112
12,GTTAGGTA,0.0357
13,CTGCGAAC,-0.0168
14,GTCTTCCA,-0.0761
15,ATAATTAC,0.168
16,ACGATAAT,0.0524
17,ACATAATG,0.256
18,GCACGTAA,-0.02
19,CGCTATAG,0.0146
20,ATCCGCAG,0.199
21,ACAACTAC,0.0351
22,GTAGTAAA,-2e-05
